Laboratory results from ChEMBL document CHEMBL4888484, “Replenishing the malaria drug discovery pipeline: Screening and hit evaluation of the MMV Hit Generation Library 1 (HGL1) against asexual blood stage Plasmodium falciparum ,using a nano luciferase reporter read-out” (2022).
The campaign covered roughly 150,000 compounds. About 540 (0.36%) showed an effect of 50% or more. Some of the results follow.

These compounds were tested on Plasmodium falciparum (assay: Primary screen in NF54 nanoGlo assay, in single point, at 2uM, 72h; a lower Z score goes with more inhibition). Details: timepoint 72 hour.
Type: functional, Erythrocyte

SMILES | % Inhibition [%] | Z score
CO[C@@H]1CN[C@@H](C(=O)NC(C)c2cnn(Cc3ccccc3)c2)C1 (stereo partly specified) | -11 | 1.29
Cc1ncn(Cc2cncc(F)c2)c1C | -1 | 0.16
Cc1ccc(N2CCCN(Cc3ccc(OC(F)(F)F)cc3)C2=O)c(NC(=O)OCc2ccccc2)c1 | 15 | -2.88
O=C(c1ccco1)N1CCN(C[C@H](O)c2ccco2)CC1 | -4 | 0.64
CCNC(=O)CN(CC)C(=O)COc1ccc(Cl)c(Cl)c1 | -8 | 1.04
CCc1oc(C(=O)O)cc1CN1CCOC[C@H]1c1ccc(OC)cc1 | -2 | 0.32
CC[C@@H](Cn1ccnc1)NC(=O)CN1CCOC1=O | -7 | 1.24
CCNc1ncnc2sc(C(=O)N3CCC[C@H](C)C3)c(C)c12 | 5 | -0.93
O=C([C@H]1C[C@@H]1C1CC1)N1CCC2(CCOCC2)C1 | -12 | 2.34
CC(C)(NC(=O)c1cc(C(F)(F)F)ccc1Cl)C(=O)O | -9 | 1.26
Cc1c(C2CCCCC2)noc1NS(=O)(=O)c1ccc(Cl)s1 | 2 | -0.33
CN1CCCC(CNC(=O)c2cnsn2)C1c1cccs1 (stereo unspecified) | 8 | -1.25
COc1ccc(-c2nc(OC)cc(OC)n2)cn1 | -7 | 1.05
O=C(c1cccc[n+]1[O-])N1CCC[C@H](C(F)(F)F)C1 | 0 | 0.02
Cc1ccc(NC(=O)c2nc(-n3ccnc3)ncc2Br)c(C)c1 | 6 | -0.77
O=S(=O)(NCc1nnc2cc(C(F)(F)F)ccn12)C1CC1 | 10 | -1.24
O=C1NCCCCCN(Cc2cccnc2)[C@@H]2CN(C(=O)NC3CCCCC3)CC[C@@H]12 | 7 | -0.92
COCCOCC(=O)N1CCC[C@H](c2cccc(C)c2)C1 | -7 | 1.32
O=C(Cc1cccs1)NC[C@H](O)c1cccs1 | -7 | 1.17
O=C(Nc1nc2ccccc2[nH]1)c1ccc2ccccc2c1 | -7 | 0.7
O=C(NC(C1CC1)C1CC1)[C@H]1CCCN(C2CCN(Cc3cccnc3)CC2)C1 | 1 | -0.09

SMILES | % Inhibition [%] | Z score
CC[C@@H](C(=O)NCc1ccccn1)N1C(=O)CCn2nc(C)cc21 | -1 | 0.16
CC(=O)N1c2cc(S(=O)(=O)NCc3ccc4c(c3)OCO4)c(Br)cc2C[C@@H]1C | 3 | -0.52
COC(=O)[C@]1(C)C[C@H](C(=O)NCC2CC2)[C@H](c2ccccc2Cl)N1C | -6 | 0.83
Cc1ccc(S(=O)(=O)N2C[C@@H](C(=O)NCc3ccc(Cl)cc3)Oc3cc(C)ccc32)cc1 | -10 | 1.47
CC(C)(C)c1noc(CS(=O)(=O)Cc2cccc3ccccc23)n1 | -5 | 0.82
Cc1cnc(C(=O)N2CCC[C@H]2c2cccs2)cn1 | 5 | -0.6
O=C(NCC1CCN(S(=O)(=O)[C@H]2CCS(=O)(=O)C2)CC1)C1CCCC1 | -1 | 0.07
COCC1(NC(=O)[C@H](C)n2cnc3c(N)ncnc32)CC1 | -6 | 0.71
Cc1nc(CCN(C)C(=O)[C@H](C)n2ccnc2C)no1 | -22 | 2.4
O=C(NCCCNc1ncccn1)NCC(F)(F)F | -2 | 0.43
O=C(CN1N=C(c2ccccc2)c2ccccc2S1(=O)=O)NCc1ccc(F)cc1 | 15 | -1.89
Cc1n[nH]c([C@@H]2CN(C(=O)C(C)C)CCCN2Cc2ccccc2)n1 | -4 | 0.71
Cc1sc(NC(=O)C2CCC(C(=O)O)NC2)nc1-c1cccc(Cl)c1 (stereo unspecified) | -2 | 0.35
Cc1nc(CN2CCc3[nH]nc(-c4ccc(-c5ccccc5)cc4)c3C2)c[nH]1 | -1 | 0.16
Cc1cccc(NC(=O)Cn2cnc(-c3noc(-c4cccc(F)c4)n3)c2)c1 | -8 | 1.12
c1ccc(-c2nc3nccc(-c4ccc5c(c4)OCO5)n3n2)cc1 | -15 | 2.13
c1ccc(-c2nc(CNc3nc(C4CC4)no3)cs2)nc1 | -12 | 1.52
CCN1CCN(C2CCN(C(=O)C3CCN(c4nc(C)c5cc(C(C)C)ccc5n4)CC3)CC2)CC1 | -2 | 0.25
COCCn1cc(NC(=O)N2CCCCCCC2)cn1 | 3 | -0.45
Cc1cc(C)n(Cc2c(C(=O)N3CC[C@H](Cc4nnc(CC(C)C)o4)C3)noc2C)n1 | -6 | 0.8
C=CCC(O)(CC=C)[C@H](C)NC(=O)c1ccnnc1 | -13 | 1.37

SMILES | % Inhibition [%] | Z score
COCc1nccc(N2CCC[C@@](O)(c3ccc(Cl)cc3)C2)n1 | -1 | 0.2
CCC(CC)C1CC(NC(=O)c2c(C)nn(C)c2Cl)CCO1 (stereo unspecified) | -15 | 2.71
CCOC1(CNC(=O)c2coc(COC)n2)CCCC1 | -13 | 1.34
Cc1c(CNC(=O)Nc2cnn([C@@H](C)C3CC3)c2)cnn1C | 0 | 0.03
CC(C)c1scnc1NC(=O)[C@@H]1CCCCC(=O)N1 | -9 | 0.95
Cc1cc(C(=O)N2CCc3cc4ccc3[C@@H]2c2cccc(c2)OCCCNC(=O)c2cc(ccc2O)O4)n(C)n1 | -11 | 1.41
O=C([C@@H]1CNc2ccccc2O1)N1CCOCC1 | 36 | -4.9
Cc1c(Br)cccc1CCNC(=O)[C@H]1CCNC(=O)C1 | -16 | 1.76
COc1ccccc1NC(=O)c1cnn2c(=O)cc(C)[nH]c12 | -10 | 1.17
CC(C)NC(=O)c1nsc(C(=O)N2CCN(C3CCCCC3)CC2)c1N | -11 | 1.32
CCc1csc(CNC(=O)c2ccc(N[C@@H](C)c3cnn(C)c3)nc2)n1 | -11 | 1.56
O=C(Cc1csc(-c2cccnc2)n1)Nc1ccc(N2CCOCC2)cc1 | -8 | 1.1
CCCN(C[C@H]1CCOC1)S(=O)(=O)Cc1ccccc1F | -1 | 0.12
Cc1ocnc1C(=O)N1CC[C@@H]2OCc3cccc(c3)Oc3cccc(c3)CCC(=O)N(C)CC(=O)N[C@@H]2C1 | -11 | 1.34
CNC[C@H](C)C(=O)N(Cc1ccccc1)CC1CCOCC1 | -3 | 0.39
COCc1noc(C(C)N2CCOC(c3nccs3)C2)n1 (stereo unspecified) | 9 | -0.88
CCn1c(N2CC[C@H](S(=O)(=O)NC(C)C)C2)nnc1C(C)(C)C | -8 | 1.06
O=C1CCCc2nc(-c3ccccc3Br)sc21 | -4 | 0.77
O=C(N[C@H]1CCc2ccccc21)c1nnn2c1c(=O)[nH]c1cc(F)ccc12 | 2 | -0.44
CC[C@H]1C[C@@H](NC(=O)c2ccccc2)C[C@@H](c2ccc(Cl)cc2)O1 | -4 | 0.41
CC(C)(NCc1ccc(C#N)cc1F)C(=O)N1CCCC1 | 5 | -0.53

SMILES | % Inhibition [%] | Z score
Cc1cccc(NS(=O)(=O)c2cc(-c3nc(C)c(C(=O)N4CCCCC4)s3)cs2)c1C | -2 | 0.35
COc1ccccc1CNC(=O)c1cc2ccncc2n1C | -1 | 0.17
Cc1c(Cl)cccc1NC(=O)c1csc(-c2ccc(N3CCCC3)nc2)n1 | -13 | 1.56
CNC(=NCCc1csc(N2CCCC2)n1)NCc1ccco1 | 9 | -0.79
CCn1ncc(C(=O)NC(C)C2CC3CCC2C3)c1C (stereo unspecified) | -10 | 1.51
C[C@@]1(C(=O)NCc2ccccc2)Cn2cnc(C(=O)NCCc3ccc(Cl)cc3)c2C(=O)N1C1CC1 | -9 | 1.78
COCCCNC(=O)[C@H]1CCCN(c2nnc3ccc(C(F)(F)F)cn23)C1 | -6 | 0.62
O=C(CNc1ccccc1N1CCCCC1)NC1CCCC1 | -7 | 0.93
CC(C)NC(=O)C(=O)Nc1cc(Cl)ccc1Cl | -8 | 1.5
CN(CCc1ccccc1)[C@@H]1[C@H](O)[C@H](CO)O[C@@H]1CNCc1ccc(F)cc1 | -11 | 1.68
COCCN(CCC#N)[C@@H]1C=CCCC1 | 5 | -0.47
O=C(c1noc2ccc(S(=O)(=O)N3CCN(C4CCCCC4)CC3)cc12)N1CCCC1 | -10 | 1.56
Cn1c(N(CCO)Cc2ccccc2)nc2c1c(=O)n(Cc1ccc(Cl)cc1Cl)c(=O)n2C | -7 | 0.74
NC(=O)C1CCN(C(=O)c2cc(S(=O)(=O)N3CCc4ccccc4C3)ccc2Cl)CC1 | -5 | 0.7
O=S(=O)(NCCn1nc(-c2ccccn2)cc1C1CC1)C1CC1 | -5 | 0.7
Cc1cc(C)n(-c2ccc(CC(=O)Nc3ccc(Br)cc3F)cc2)n1 | -12 | 2.34
N=C(NS(=O)(=O)Cc1ccccc1)N1CCN(c2ccccc2F)CC1 | -15 | 2.3
Cc1ccccc1-c1cn(CC(=O)NCCc2ccc(Cl)cc2)nc1N1CCOCC1 | -15 | 1.8
O=C(COc1ccccc1)NC1(C(=O)NC2CCCC2)CCCCC1 | 1 | -0.07
CC[C@@H](CO)NCc1ccc(-c2ccn(Cc3scnc3C)n2)s1 | -5 | 0.73
